± gives the standard deviation of the averaged measurements. Some of the results follow.
What follows are sequences tested on PfAP2-EXP AP2 domain (GST-tagged) (assay: gcPBM binding intensity (ln(normalized median fluorescence intensity)); higher = stronger DNA binding).
Method in brief: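 An Agilent 4 × 180k array carrying primer-extended double-stranded 36-bp intergenic genomic probes and negative controls received GST-tagged P. falciparum DNA-binding domains expressed in E. coli, about 25 μg on average, for 1 h. The binding buffer contained 1× PBS, 1% milk, 0.2 mg/ml BSA, 0.5% salmon testes DNA and 0.03% Triton X-100. Binding intensity is the top Masliner-normalised natural-log median intensity across replicate spots of either probe orientation, read after Alexa488 anti-GST antibody staining and a 488 nm scan.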

| Sequence | gcPBM binding intensity (ln) |
| --- | --- |
| TTCTGTGTCTAAAAATGTACGGGAATATATAAAAGT [XGTACX_site2090] | 9.04 ± 0.32 |
| TGACTTTGTTGAATTTGTCCTCTTAACTCATAATAT [GTGCAC_negctrl_site217] | 8.18 ± 0.23 |
| ATACATATATATAGGTGTACATATAATATATATATA [XGTACX_site2228] | 9.3 ± 0.12 |
| AACCATGTTAACAATGCATGCATCACTATATAAACG [TGCATGCA_site421] | 9.79 ± 0.53 |
| TTTAATTTTACATGAGAAACATATTACAATAAAATA [GTGCAC_negctrl_site606] | 8.29 ± 0.36 |
| ATATTTTTTGGAAAGTGTACAATATTATATATTAAA [XGTACX_site2163] | 8.38 ± 0.37 |
| GAAATACCGGAAAGCAAACACACATTTTAAAACCAT [CACACA_site3861] | 8.86 ± 0.57 |
| ATATAATAGAAGTGTACACACATATTTATGTCTGTA [CACACA_site3121] | 8.65 ± 0.45 |
| ATGGATAACAATATGTGTACACATTTATATCTCCAC [XGTACX_site5457] | 8.8 ± 0.21 |
| ATACATTTTTTTTATACGCACACGTCATACTTTTAA [CACACA_site1638] | 8.88 ± 0.42 |
| AAGCATGGATATTTTACACACATTTCCACGTAACAA [CACACA_site3141] | 8.47 ± 0.33 |
| CTAGCAAATACATACACACACACACCGATACATATA [CACACA_site9164] | 8.62 ± 0.51 |
| ACAAGACAGATATATACACACATACATACATACATA [CACACA_site7472] | 8.73 ± 0.38 |
| TTTCTTAAAAAAAAAAAAAAAAGAAGATAAATAAAA [CACACA_negctrl_site289] | 8.38 ± 0.49 |
| TTTAACTTATTCAATGCACACATTTTAATAAGATAT [CACACA_site1967] | 8.21 ± 0.34 |
| ATATTTATTTATATTACACACATGTGCAATTAAACT [CACACA_site6928] | 8.64 ± 0.22 |
| TATAAAAAATAAAAAGTTTAATGAATATTTCTTTTA [TGCATGCA_negctrl_site379] | 7.75 ± 0.47 |
| TCACATGGAAAAAAGTGTACATAATTATGTATAAAT [XGTACX_site2827] | 8.85 ± 0.28 |
| ATATATATAACATATACACACGTTCATATATATATA [CACACA_site4416] | 9.84 ± 0.14 |
| TAATTTTTATTTTATTTTATTTTTTTTTTTTTTATT [CACACA_negctrl_site1671] | 8.1 ± 0.4 |
| TTACAAGTAAAAGGTACACACATTATATATACAAAT [CACACA_site8290] | 8.71 ± 0.42 |
| TTATATATATTTAAATTTTATCTCACATATATATAT [TGCATGCA_negctrl_site275] | 9.255 ± 0.092 |

| Sequence | gcPBM binding intensity (ln) |
| --- | --- |
| TCCCTAAAAAATGATAAATGGAGACAATTCCGACAA [GTGCAC_negctrl_site209] | 8.43 ± 0.29 |
| AATACAATTTCTAGCACACAAAATATTATTATAATT [CACACA_site3223] | 8.5 ± 0.35 |
| AAAAAAAAAAAAATCACACACAATATGAATTTATAG [CACACA_site601] | 8.11 ± 0.43 |
| AAAAAACAATCTCATACACACTAGGGATTAATTATT [CACACA_site5051] | 8.41 ± 0.36 |
| TATAGAAGCGTTCACACACACACATACATACCCATA [CACACA_site4915] | 8.78 ± 0.39 |
| TGTAGTCTGGAGAAAAGTACATAGTATCTGATAACC [XGTACX_site2018] | 8.77 ± 0.47 |
| GTGCATATATGATATACACACAATATAATAGTATGT [CACACA_site2460] | 8.46 ± 0.27 |
| AATATAATGTAATATACACACATATATTTCTCTTTT [CACACA_site5451] | 8.24 ± 0.39 |
| AAGAGTTTGAAGTTTGCACACTACGTTAAAAATAAA [CACACA_site3939] | 8.37 ± 0.4 |
| AAAAATTTATTTTTAGGTACACAATTGAATTATTTA [XGTACX_site7008] | 8.16 ± 0.27 |
| CCACATTTTACAGACACACACAATTTATATTACGGT [CACACA_site1894] | 8.56 ± 0.51 |
| ATATATTTAAATAAAAGTACGTAAAGGTATATTTAA [XGTACX_site8088] | 8.79 ± 0.4 |
| ATAATAAAAAAAAAATGTACATAAATCTAAAATCCT [XGTACX_site5823] | 8.58 ± 0.44 |
| TGAAGAAAATATTAATGTACATATTATATATATATA [XGTACX_site5497] | 9.73 ± 0.19 |
| CCTCCCATTTTTACACGTACACATTTAAAATAGACT [XGTACX_site5640] | 9.11 ± 0.56 |
| AATACAATTTATAACACACACACAATAATACATATA [CACACA_site1252] | 8.83 ± 0.42 |
| GTATTTTTTTTAATATGTACATATAAAATATTTTAT [XGTACX_site8329] | 8.96 ± 0.31 |
| ATATAAGTTTATATATGTACATATATATATTATATA [XGTACX_site2068] | 8.4 ± 0.26 |
| AATTCATTTAAAAGTTGTACAAGCTTAATAAAAAAA [XGTACX_site6073] | 8.54 ± 0.43 |
| ATATACACATAAAGTAGTACACCTGAAATTTTTTTT [XGTACX_site2951] | 8.52 ± 0.21 |
| GAGGATATATTATATGTACACACATATATAACGGAT [CACACA_site8361] | 8.8 ± 0.33 |
| CCCATGCATTTTTGCACACACATATATATATAAATA [CACACA_site1430] | 8.95 ± 0.23 |

| Sequence | gcPBM binding intensity (ln) |
| --- | --- |
| AATTAAAAATATAAATGTACATATATGTAAAACTTT [XGTACX_site123] | 8.7 ± 0.53 |
| TTAATCATAAAAGTCACACATAATAAGAAAAAGCTT [CACACA_site4616] | 8.62 ± 0.54 |
| AATATATGAATTAGAAGTACAAATAAATATTTATTT [XGTACX_site2062] | 8.54 ± 0.36 |
| GTTTGTATAGGTTCATGTACAAAAAAAAAAAAAAAA [XGTACX_site537] | 8.32 ± 0.41 |
| TTTAAAACCCTAAAAAAAAAAAAAAAAAAAAAAAAA [CACACA_negctrl_site1212] | 7.96 ± 0.33 |
| ATGCATAAAAGAAATACACACATAAATATGTAAATA [CACACA_site7087] | 8.52 ± 0.59 |
| TTAAAACATATTTTGAATTAATATATTTTAATATTA [XGTACX_negctrl_site148] | 7.72 ± 0.39 |
| TAGCGTACATTTCATTGTAATCATAAAAAATAAAGA [CACACA_negctrl_site447] | 8.56 ± 0.49 |
| ATTCATATGTGACACACACACACACGCATAAAAAAA [CACACA_site7515] | 8.73 ± 0.51 |
| TTTATTAGAACCGTACGTACATAGTTATTTTTTCAA [XGTACX_site8848] | 8.44 ± 0.32 |
| ACAAAAATATATATATGTACATATATCATCATAATA [XGTACX_site5850] | 8.48 ± 0.42 |
| TATATATATATATGGGTGCATTTTTTTGTCCATGTA [GTGCAC_site9868] | 10.1 ± 0.2 |
| ATAAAATAAATGAAAAATGTAAAATGAGAAAAAAAT [CACACA_negctrl_site1026] | 9.1 ± 0.42 |
| TATGCTATAATACTCTGTACTTACTAATTTAATAAT [XGTACX_site5926] | 8.38 ± 0.59 |
| TACATATTTTTTATATGTACATATTTTTTATGTGTA [XGTACX_site442] | 8.51 ± 0.38 |
| TAATAAACAAATTCCAAAATAAATTAAAAGGAAAAT [CACACA_negctrl_site1404] | 8.47 ± 0.35 |
| AGGTATATATTACAAGTGCACTGTAAAATTAAAATT | 8.77 ± 0.15 |
| TTTTATCTCATTCATCAAAATCACCGGAATCATATA [CACACA_negctrl_site357] | 8.61 ± 0.3 |
| ATTTTATCATAATAAAGTACAAAGATGCAAATAATA [XGTACX_site2270] | 9.06 ± 0.38 |
| ATTTATTTATATTTAGTGCAATACTATTTTTAAATA [GTGCAC_site9886] | 8.47 |
| GTAATGTCGTCGTTTTGTACATATTTTTATAAAAAG [XGTACX_site2688] | 9.06 ± 0.45 |
| TATTATAAATTAATTTTAAACTTTATTATTATGATA [GTGCAC_negctrl_site389] | 8.03 ± 0.41 |

| Sequence | gcPBM binding intensity (ln) |
| --- | --- |
| TTAAAATTATATCTGTGTACATAAATTGTGTAACTA [XGTACX_site1966] | 8.35 ± 0.28 |
| AAAAAAAAAAAGAACTCACACATAATAATGTATATG [CACACA_site4974] | 8.2 ± 0.59 |
| AAAGGAGACAGAATAAGAATAAATATTATACATATA [XGTACX_negctrl_site412] | 8.46 ± 0.45 |
| TATTAGTCGAATGATGTACACACATACAAAACATTT [CACACA_site9331] | 8.61 ± 0.35 |
| ATTTAAAAAAAAATGGCACACATTTTAATTTTATGT [CACACA_site1740] | 8.16 ± 0.31 |
| TTGTGTCATATATTTTGTAATCAAAATAATTTTATT [TGCATGCA_negctrl_site307] | 8.15 ± 0.042 |
| TTTTTGTTTCGTTACGCATGCCAAAAGTAAAAATAT [TGCATGCA_site536] | 9.59 ± 0.3 |
| TTTTTAATGATCAGACGTACAGTTATGAAGAAATTT [XGTACX_site6394] | 8.86 ± 0.31 |
| ATAATGTTCCTATGATGTACTTATAATTATCATTTT [XGTACX_site4017] | 8.73 ± 0.45 |
| AAGAGGTTATTACATTCACATAACATCAATATACGT [GTGCAC_negctrl_site264] | 8.51 ± 0.49 |
| TATTGTTCGTTTAAGGTGCTATTGTTTGCAAAATAT [GTGCAC_site9412] | 8.95 ± 0.45 |
| ATTAAAATAATATAAACACACATATACTTTTTTCTA [CACACA_site565] | 8.19 ± 0.36 |
| TGGGAAAACCCCAGAAGTACGCTTAATATAAAAAAT [XGTACX_site697] | 8.54 ± 0.48 |
| CTATTATTTTTAAATTGTACTATAACAAAATGTATA [XGTACX_site3916] | 8.23 ± 0.3 |
| TTTATATTTATATAAATATAATATATATGAATTATA [XGTACX_negctrl_site466] | 8.19 ± 0.51 |
| AAATAAATCTATAATACACACAAAAATATAAAATGC [CACACA_site7700] | 8.84 ± 0.49 |
| ATATATATGTTTTATAGTACACACATAAATGGACAT [XGTACX_site4538] | 8.68 ± 0.4 |
| ATAACTTGTATATATACACACACACCCTTTCTTTTT [CACACA_site8600] | 9.01 ± 0.5 |
| TATATTATATTATACATACACACCCATATAATATGT [CACACA_site869] | 8.81 ± 0.45 |
| TTAAGAAATAACAATGCACACATTTAGGTCTTTTAT [CACACA_site3285] | 8.44 ± 0.41 |
| CTTCAATATATTCTTACACACTTAAAAAAAAAAATA [CACACA_site4287] | 8.27 ± 0.38 |
